Key:
[1] = molecular target: T1, Soluble human FGFR1c/KLB receptor complex (FGFR1c ectodomain-Fc with soluble KLB) (human, UniProt P11362 22-376; Q86Z14 1-996); test: AlphaScreen or HTRF; cell-free competition: biotinylated FGF21 on streptavidin donor beads, FGFR1c-Fc or FGFR4-Fc ectodomain on Protein A acceptor beads, human soluble KLB added to give the signal; 5 μg/ml heparin, 0.1% BSA; increasing doses of unlabelled protein or peptide displace biotinylated FGF21; conditions: both partners purified
T1 construct: human FGFR1c ectodomain fused to Fc, coupled to Protein A acceptor beads; human beta-Klotho (KLB) protein, called human soluble KLB; also called FGFR1/KLB complex; soluble FGFR1/KLB receptor complex; source: bought: R&D Systems (both chains)
T1 sequence (looked up) 1: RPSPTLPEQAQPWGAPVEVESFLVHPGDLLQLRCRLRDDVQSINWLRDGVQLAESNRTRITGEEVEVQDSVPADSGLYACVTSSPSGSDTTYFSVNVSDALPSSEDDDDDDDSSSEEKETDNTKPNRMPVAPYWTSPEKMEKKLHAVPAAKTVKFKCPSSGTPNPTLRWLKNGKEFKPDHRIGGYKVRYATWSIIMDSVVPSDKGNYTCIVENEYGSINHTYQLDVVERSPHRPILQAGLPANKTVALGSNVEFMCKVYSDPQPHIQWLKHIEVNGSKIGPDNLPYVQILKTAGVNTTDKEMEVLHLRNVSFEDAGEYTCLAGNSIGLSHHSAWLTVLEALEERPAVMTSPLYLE
T1 sequence (looked up) 2: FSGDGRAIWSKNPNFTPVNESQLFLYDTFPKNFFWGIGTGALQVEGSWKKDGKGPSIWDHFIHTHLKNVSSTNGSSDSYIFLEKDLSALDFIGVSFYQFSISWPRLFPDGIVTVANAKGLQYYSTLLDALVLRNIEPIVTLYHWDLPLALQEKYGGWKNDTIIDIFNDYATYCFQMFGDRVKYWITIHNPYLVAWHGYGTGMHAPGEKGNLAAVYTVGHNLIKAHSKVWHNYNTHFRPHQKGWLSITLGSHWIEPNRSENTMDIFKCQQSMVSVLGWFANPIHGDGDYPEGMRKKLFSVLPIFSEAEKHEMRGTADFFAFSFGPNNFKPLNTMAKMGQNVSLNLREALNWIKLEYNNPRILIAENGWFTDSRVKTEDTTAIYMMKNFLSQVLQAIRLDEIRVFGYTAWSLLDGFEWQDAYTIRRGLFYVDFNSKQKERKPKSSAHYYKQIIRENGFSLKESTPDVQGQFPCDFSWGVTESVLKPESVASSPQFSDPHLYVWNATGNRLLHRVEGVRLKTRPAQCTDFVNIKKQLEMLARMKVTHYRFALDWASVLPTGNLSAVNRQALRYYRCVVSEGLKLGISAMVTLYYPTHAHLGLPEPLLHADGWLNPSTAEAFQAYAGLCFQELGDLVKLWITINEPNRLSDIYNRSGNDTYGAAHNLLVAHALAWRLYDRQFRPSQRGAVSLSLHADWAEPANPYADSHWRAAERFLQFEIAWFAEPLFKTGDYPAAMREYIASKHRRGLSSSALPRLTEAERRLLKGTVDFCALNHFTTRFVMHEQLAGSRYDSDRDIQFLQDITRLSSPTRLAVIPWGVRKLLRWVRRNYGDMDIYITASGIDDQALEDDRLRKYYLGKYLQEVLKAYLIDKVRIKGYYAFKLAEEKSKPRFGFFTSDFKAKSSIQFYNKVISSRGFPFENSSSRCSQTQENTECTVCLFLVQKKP

[2] = molecular target: T2, Soluble human FGFR4/KLB receptor complex (FGFR4 ectodomain-Fc with soluble KLB) (human, UniProt P22455 22-369; Q86Z14 1-996); test: as above; conditions: both partners purified
T2 construct: human FGFR4 ectodomain fused to Fc, coupled to Protein A acceptor beads; human beta-Klotho (KLB) protein, called human soluble KLB; also called hFGFR4/KLB; source: bought: R&D Systems (both chains)
T2 sequence (looked up) 1: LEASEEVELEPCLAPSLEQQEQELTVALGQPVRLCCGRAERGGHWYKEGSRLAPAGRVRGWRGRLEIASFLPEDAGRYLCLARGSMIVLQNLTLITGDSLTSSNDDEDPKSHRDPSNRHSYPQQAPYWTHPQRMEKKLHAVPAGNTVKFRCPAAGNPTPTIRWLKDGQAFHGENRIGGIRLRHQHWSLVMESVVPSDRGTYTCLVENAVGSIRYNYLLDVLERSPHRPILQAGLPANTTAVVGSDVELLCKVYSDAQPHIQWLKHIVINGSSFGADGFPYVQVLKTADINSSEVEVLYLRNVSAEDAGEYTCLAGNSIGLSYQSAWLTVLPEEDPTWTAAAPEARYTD
T2 sequence (looked up) 2: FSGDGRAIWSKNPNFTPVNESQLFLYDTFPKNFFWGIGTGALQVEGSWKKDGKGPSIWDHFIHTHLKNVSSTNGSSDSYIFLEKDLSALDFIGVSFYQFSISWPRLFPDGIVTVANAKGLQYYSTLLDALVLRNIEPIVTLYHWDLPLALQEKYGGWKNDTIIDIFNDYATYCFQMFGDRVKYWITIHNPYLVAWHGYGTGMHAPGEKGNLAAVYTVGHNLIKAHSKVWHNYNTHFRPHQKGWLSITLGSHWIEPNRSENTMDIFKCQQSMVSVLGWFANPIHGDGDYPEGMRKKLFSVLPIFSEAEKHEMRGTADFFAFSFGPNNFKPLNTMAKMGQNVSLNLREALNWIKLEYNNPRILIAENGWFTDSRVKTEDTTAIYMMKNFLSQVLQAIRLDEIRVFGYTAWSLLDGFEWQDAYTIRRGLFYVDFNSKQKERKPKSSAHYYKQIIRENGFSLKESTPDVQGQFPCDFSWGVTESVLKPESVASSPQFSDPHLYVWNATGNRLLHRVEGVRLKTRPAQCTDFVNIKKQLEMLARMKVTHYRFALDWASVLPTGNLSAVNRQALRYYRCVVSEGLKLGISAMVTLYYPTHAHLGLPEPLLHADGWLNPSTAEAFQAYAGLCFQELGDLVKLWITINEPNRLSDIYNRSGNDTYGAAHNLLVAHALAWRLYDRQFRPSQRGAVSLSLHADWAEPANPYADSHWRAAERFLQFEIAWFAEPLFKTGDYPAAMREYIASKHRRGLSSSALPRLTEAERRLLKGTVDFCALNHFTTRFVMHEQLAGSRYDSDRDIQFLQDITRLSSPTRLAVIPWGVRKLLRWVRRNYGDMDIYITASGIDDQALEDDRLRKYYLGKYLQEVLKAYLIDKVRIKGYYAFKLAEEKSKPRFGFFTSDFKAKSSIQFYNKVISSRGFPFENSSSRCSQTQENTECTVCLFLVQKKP

B1: Human FGF19 ([…]) (ligand)
chain: not shown
notes: also called fibroblast growth factor 19; native FGF19; source: E. coli OrigamiB (DE3), purified (Ni-NTA, SUMO protease digestion, Q-Sepharose)
IC50 [1]: 270 nM | IC50 [2]: 10.6 nM
